# Laboratory results published in PubChem BioAssay AID463173 (ICCB-Longwood Screening Facility, Harvard Medical School, 2010).
# Where “and” joins values, the source holds several entries; their conditions need not be identical. Identical values can stand only once. Among all 52,000 compounds or so, about 4,300 (8.3%) were called active. Rule as the data show it: active = survival mostly below about 52% (no sharp cut-off); inactive = mostly above about 56%. Some of the results follow. More than one record can exist for a structure, and the calls need not agree.
# Tested on: DeltatarO mutant
# Assay: growth inhibition of S. aureus wild type versus tarO mutant, primary screen, teichoic acid synthesis inhibitors, RN4220, OD600 (AID 463173)
# Details: OD600, 18 h, stronger effect = lower value, screened at 18.75 µg/mL (by protocol)
row,SMILES,survival
1,CCOC(=O)c1cnc2c(C)cccc2c1Nc1ccc(OC(C)C)cc1,active: 2%
2,Cc1ccc(C)c(N2CCN(c3nc4ccc(C(=O)c5ccccc5)cc4n4cnnc34)CC2)c1,inactive: 79%
3,COc1ccccc1CN(Cc1c(Cl)cccc1Cl)S(=O)(=O)c1ccc(Br)cc1,inactive: 102%
4,Cc1cccc(OCCCn2c(CCNC(=O)C3CCCCC3)nc3ccccc32)c1,inactive: 37%
5,NC(=O)CSc1nc2ccc(NC(=O)COc3ccccc3Cl)cc2s1,inactive: 85%
6,Cc1cccc(-n2nc(C)c(C(=O)N3CCN(c4ccccc4)CC3)c2-n2cccc2)c1,inactive: 66%
7,CS(=O)(=O)N(Cc1ccccc1)c1ccc(C(=O)Nc2ccc(Cl)cc2)cc1,inactive: 145%
8,COc1cc(C(=O)NCC#N)cc(OC)c1OC,inactive: 101%
9,COc1ccccc1C(=O)Nc1ccc(S(=O)(=O)Nc2ncccn2)cc1,inactive: 77%
10,Cc1cc(F)ccc1NC(=O)CCn1nc(C)c(S(=O)(=O)N2CCCCC2)c1C,inactive: 88%
11,Cc1ccc(C)c(N2CCN(C(=O)C(CC(C)C)NS(=O)(=O)c3ccc4nc(C)sc4c3)CC2)c1 (centres undefined),inactive: 85%
12,Cc1cc(C)cc(OCC(=O)N2CCC(c3nc4ccccc4s3)CC2)c1,inactive: 85%
13,CCc1cccc(C)c1NC(=O)CSc1nc2c(c(=O)[nH]1)CCC2,inactive: 103%
14,CCCN1C(=O)C(Cc2nc3ccccc3c(=O)n2-c2ccc(OC)cc2)c2cc(C)ccc21 (centres undefined),inactive: 68%
15,O=C(O)CCCC(=O)n1cnc2ccccc21,inactive: 87%
16,Cc1cc(C(=O)O)c(CN2CCCC2)o1,active: 74%
17,CCOc1cc(C2NC(=O)NC(C)=C2C(=O)Nc2ccc(F)cc2)ccc1O (centres undefined),inactive: 81%
18,Cn1cc(S(=O)(=O)c2cccc(Cl)c2)c(=O)c2cc(F)c(N3CCCCC3)cc21,inactive: 76%
19,O=C(NCCc1ccc(Cl)cc1)c1ccc(CSCc2cccc(Cl)c2)o1,inactive: 97%
20,Cc1ccc(Cl)cc1NC(=O)c1oc2ccc(S(=O)(=O)N3CCCCCC3)cc2c1C,inactive: 93%
21,CCN(CC)c1ncnc2ccc(Br)cc12,inactive: 112%
22,CC(C)C(=O)OCc1cc(=O)n2nc(C3CC3)sc2n1,inactive: 86%
23,O=C(NCc1cccs1)c1c[nH]c2c(F)cccc2c1=O,inactive: 90%

row,SMILES,survival
1,CCCCN(C)S(=O)(=O)c1ccc(C(=O)Nc2ccc(-c3nc4ccc(C)cc4s3)cc2)cc1,inactive: 95%
2,CCN1CCN(c2oc(/C=C/c3cc(OC)c(OC)c(OC)c3)nc2C#N)CC1,inactive: 72%
3,S=c1[nH]c2ccc3ccccc3c2[nH]1,inactive: 78%
4,CCc1ccc(C2c3c(oc4cc(C)c(C)cc4c3=O)C(=O)N2c2nc(C)c(C(=O)OC)s2)cc1 (centres undefined),inactive: 78%
5,COc1cc(OC)c(C2C(C(=O)Nc3ccccc3)=C(C)Nc3ncnn32)cc1OC (centres undefined),inactive: 72%
6,COc1ccc(-c2noc(CC(=O)Nc3ccc(C)c(F)c3)n2)cc1,inactive: 91%
7,O=C(NCC(c1ccco1)S(=O)(=O)c1cccs1)c1ccc(Cl)cc1 (centres undefined),inactive: 102%
8,Cc1cc(C(=O)NCc2ccccc2Cl)c2c(C)nn(-c3cccc(F)c3)c2n1,inactive: 68%
9,CCCN(C(=O)Nc1cn(CC(C)C)c(=O)c2ccccc12)c1ccc(F)cc1,inactive: 82%
10,O=C(Nc1ccccc1)NC1(C(=O)NCc2ccc3c(c2)OCO3)CCCCC1,active: 6%
11,CC(=O)N1CCc2c(sc3c2c(=O)n(-c2ccc(C)cc2)c(=O)n3Cc2ccccc2C)C1,inactive: 126%
12,CCCCNC(=O)c1ccc2c(c1)NC(=O)C(CS(=O)(=O)Cc1ccc(C)cc1)N2 (centres undefined),inactive: 87%
13,Cc1c(Cl)cccc1NC(=O)Cn1c(=O)n(Cc2nc(-c3ccccc3)no2)c(=O)c2cc3c(cc21)OCO3,inactive: 102%
14,CCc1nn(CC(=O)NCCCc2ccccc2)c(=O)c2cc3ccccc3n12,inactive: 90%
15,CCCC(=O)Nc1cccc(-c2cn3c(C)csc3n2)c1,active: -5%
16,CCc1ccc(CNC(=O)c2cnc3c(C)cccn3c2=O)cc1,inactive: 80%
17,Cc1ccc(Nc2cc(C)c(C#N)c3nc4ccccc4n23)c(C)c1,active: 38%
18,Cc1c(Cl)cccc1NC(=O)C1CCN(c2nc3ccccc3[nH]2)CC1,inactive: 95%
19,COc1cc(C2Nc3ccccc3-c3nnc(SCc4ccc(C)cc4)nc3O2)cc(OC)c1O (centres undefined),inactive: 140%
20,CC(C)CCNC(=O)C(=O)Nc1c2c(nn1-c1ccc(Cl)cc1)CSC2,inactive: 86%
21,CCn1c(CN2CCC(C)CC2)nc2cc(NC(=O)c3ccc([N+](=O)[O-])cc3)ccc21,inactive: 86%
22,Cc1ccc(-n2nc(-c3ccccc3)c3cnc4cc5c(cc4c32)OCO5)cc1C,inactive: 127%
23,CC(=O)Nc1cccc(NC(=O)CSc2ccc(-c3sc(-c4ccccc4)nc3C)nn2)c1,active: -14%

row,SMILES,survival
1,Cc1cccc(Nc2nnc(-c3ccc(C)c(S(=O)(=O)N4CCN(C)CC4)c3)c3ccccc23)c1,inactive: 138%
2,Cc1cccc(C(C)C)c1NC(=O)c1ccc2c(c1)CCN2S(C)(=O)=O,inactive: 74%
3,COc1ccc(N2CCN(C(=O)c3ccccc3N(C)S(C)(=O)=O)CC2)cc1,inactive: 85%
4,Cc1nn2c(=O)cc(COC(=O)c3cccc(NC(=O)c4ccc(F)cc4)c3)nc2s1,inactive: 81%
5,CCOC(=O)Cc1c(C(=O)OCC)nnc2c(-c3ccccc3)c(C)nn12,inactive: 75%
6,CC(=O)c1ccc(NC(=O)CC2Oc3ccc(C)cc3NC2=O)cc1 (centres undefined),inactive: 85%
7,COCCNc1oc(-c2ccc(OC)cc2)nc1C#N,inactive: 54%
8,CCOC(=O)c1cccc(NC(=O)N2CC=C(c3c[nH]c4ccccc34)CC2)c1,inactive: 83%
9,COc1ccc(OC)c(NC(=O)N2CC3CCCN3c3ccccc32)c1 (centres undefined),inactive: 89%
10,CCCN1C2CCCC1CC(NC(=O)Nc1ccccc1C(F)(F)F)C2 (centres undefined),inactive: 60%
11,Cc1cc(Nc2ccc(Br)c(C)c2)n2nc(-c3ccco3)nc2n1,active: -5%
12,CCN(CC)C(=O)Cn1c(=O)n(CCc2ccccc2)c(=O)c2ccccc21,inactive: 100%
13,COc1cccc(N2CCN(c3ncnc4c3c(-c3ccccc3)cn4-c3cccc(C(F)(F)F)c3)CC2)c1,inactive: 84%
14,CCCNC(=O)N1[C@H](c2cccs2)[C@@H](C)C(=O)[C@@H](C)[C@@H]1c1cccs1,inactive: 107%
15,COc1ccc(S(=O)(=O)NCC(c2ccc(N(C)C)cc2)N2CCc3ccccc32)cc1F (centres undefined),inactive: 84%
16,COc1ccc(CNC2CCCC2)cc1,inactive: 79%
17,CCOC(=O)c1ccccc1NC(=O)COC(=O)CC(C)(C)CC1=NS(=O)(=O)c2ccccc2N1,inactive: 67%
18,Cc1cc(C)n2nc(CNS(=O)(=O)c3ccccc3)nc2n1,inactive: 119%
19,CCOc1ccc(S(=O)(=O)N2CCC(c3ccncc3)CC2)cc1,inactive: 134%
20,Cc1ccc(N2C(=O)CC(NCC(=O)O)C2=O)c(C)c1 (centres undefined),inactive: 89%
21,COc1cccc(NC(=O)c2oc3ccc(S(=O)(=O)N4CCCCCC4)cc3c2C)c1,inactive: 95%
22,COC(=O)c1ccccc1NC(=O)c1nn(-c2ccc(OC)cc2)c(=O)c2c1c1ccccc1n2C,inactive: 88%
23,COc1cccc(NC(=O)C2CCN(S(=O)(=O)c3ccc4[nH]c5c(c4c3)CCCCC5)CC2)c1,inactive: 70%

row,SMILES,survival
1,CCOC(=O)C(C)Sc1nc(-c2ccccc2)ccc1C#N (centres undefined),inactive: 82% and active: -1%
2,CCC(C)NC(=O)c1c(C)oc2nc(C)nc(N3CCOCC3)c12 (centres undefined),inactive: 83%
3,Cc1ccc(NC(=O)c2ccc3snnc3c2)cc1C,inactive: 109%
4,Cc1cc(C)n(-c2nc(C)c(C)c(=O)n2CC(=O)Nc2cccc([N+](=O)[O-])c2)n1,active: 52%
5,CCOC(=O)c1ccc(NC(=O)Cn2c3ncccc3c(=O)n2-c2ccc(C)c(C)c2)cc1,inactive: 77%
6,COc1ccc(-c2cc(C(=O)NCCc3ccc(OC)c(OC)c3)c3c(-c4ccc(F)cc4)[nH]nc3n2)cc1,inactive: 69%
7,COc1cccc(NC(=O)CN(c2cccc(OC)c2)S(C)(=O)=O)c1,inactive: 99%
8,COC(=O)CC(=O)CSc1nc2cc(C(=O)NCC(C)C)ccc2c(=O)n1CCc1ccccc1,inactive: 128%
9,O=C(Nc1ccccc1C(F)(F)F)N1CC=C(c2c[nH]c3ccccc23)CC1,inactive: 117%
10,COc1ccc(-c2cc3nc(C)c(CCC(=O)NC(C)c4ccccc4)c(C)n3n2)c(OC)c1 (centres undefined),inactive: 84%
11,COc1ccc(-c2onc(C)c2C)cc1S(=O)(=O)N1CCN(c2cc(C)ccc2C)CC1,inactive: 81%
12,Cc1c(Cl)ccc2sc(N3CCN(C(=O)C4CC4)CC3)nc12,inactive: 98%
13,Cc1nn(C(=O)c2cccc([N+](=O)[O-])c2C)c(C)c1S(=O)(=O)N1CCCCCC1,active: -2%
14,CCOc1ccc(N(CC)S(=O)(=O)N2CCCC(C(=O)Nc3ccc(OC)c(Cl)c3)C2)cc1 (centres undefined),inactive: 83%
15,Cc1cccc(NC(=O)CN2C(=O)CSc3ccc(S(=O)(=O)N4CCCC4)cc32)c1C,inactive: 92%
16,O=C(O)c1ccccc1C(=O)Nc1cccnc1,inactive: 89%
17,COc1cccc(NC(=O)CSc2c3c(nc4ccccc24)CCCC3)c1,active: 43%
18,O=C(Cn1c(C(=O)NC2CCCCC2)cc2sccc21)c1ccccc1,inactive: 85%
19,CCc1ccccc1NC(=O)Cn1nc(N2CCN(c3ccccc3OC)CC2)ccc1=O,inactive: 89%
20,CCOc1ccccc1C(=O)N1CCC(c2nc3ccccc3o2)CC1,inactive: 80%
